From PubChem BioAssay AID504466 (National Center for Advancing Translational Sciences (NCATS), 2011)
About 4,200 (1.3%) of roughly 330,000 compounds were called active. Inconclusive means that the source gave no clear call. Such entries were picked first, then a sample of the others. Calls follow the shape of the dose curve; as a rule, active = well fitted activation curve with a large enough effect; inconclusive = small, poorly fitted or top-dose-only effect; inactive = no such curve, though single readings can be large or run the other way. Where the call is inconclusive, the potency comes from a doubtful curve fit.

Test: qHTS screen for small molecules that induce genotoxicity in human embryonic kidney (HEK293T) cells expressing luciferase-tagged ELG1; also: nearly all actives have a fitted effect of over 60% in size; as to activity change, positive = activation: % of control where 0% means no effect
Details: HEK293T ELG1-luciferase reporter, luminescence, 16 h; series mostly up to 46 µM; activity change, positive = activation: at the top concentration
Method in brief: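 Cells (2,000/well) expressing the ELG1-luciferase fusion are dosed by pin tool and kept 16 hr at 37 °C, 5% CO2. Signal comes from ONE-Glo luciferase reagent after 30 min at room temperature.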
Potency is read from the fitted curve at half-maximal effect; tags tell the direction and shape of the fitted curve.

**Q.** Which Potency does the source give for `O=C(NCCc1ccc(Cl)cc1)c1ccc(Br)s1` here?
**A.** inconclusive: 9.2 µM [activator, partial curve]

**Q.** With `CC(C)CNC(=O)C1CCCN(C(=O)NCc2ccccc2)C1` (stereo not given) as the molecule, how does the “activity change, positive = activation” value read?
**A.** inactive: 0.191%

**Q.** For `C/C(=N/OC(=O)C1CC1)c1cc(-c2ccc(Cl)cc2)no1`, which Potency is on record?
**A.** inconclusive: 14.6 µM [activator, partial curve]

**Q.** Which Potency does the source give for `O=C(Nc1nnc(SCc2ccccc2)s1)c1cccs1` here?
**A.** active: 14.6 µM

**Q.** Which “activity change, positive = activation” value does the source give for `c1ccc(CNCCN2CCNCC2)nc1` here?
**A.** inactive: 0.852%

**Q.** For `CC(C)n1cnc2cc(NC(=O)c3ccco3)ccc21`, which Potency is on record?
**A.** inconclusive: 14.6 µM [activator, partial curve, poor fit]

**Q.** Which Potency does the source give for `Cn1ncc2c1ncn1nc(CCc3ccccc3)nc21` here?
**A.** inconclusive: 2.59 µM [activator, full curve]

**Q.** For `Cc1csc(NC(=O)C(C)N2C(=O)c3ccccc3S2(=O)=O)n1` (stereo not given), which “activity change, positive = activation” value is on record?
**A.** inactive: -0.0119%

**Q.** Which Potency does the source give for `Cc1cccc(NC(=O)Nc2ccc(Cl)c(Cl)c2)n1` here?
**A.** inconclusive: 6.51 µM [activator, partial curve]

**Q.** Which Potency does the source give for `COc1cc(/C=C/c2ccc3cccc(O)c3n2)c(Br)cc1O` here?
**A.** inconclusive: 25.9 µM [activator, single point]

**Q.** For `O=C(COc1ccc2c(c1)OCO2)Nc1nccs1`, which Potency is on record?
**A.** active: 2.31 µM

**Q.** With `Cc1ccccc1/C=C/c1nc2ccccc2c(=O)[nH]1` as the molecule, how does the Potency read?
**A.** active: 10.3 µM

**Q.** With `CC(C)c1nc(N2CCCC2)c(C#N)c2c1CCCC2` as the molecule, how does the Potency read?
**A.** inconclusive: 16.4 µM [activator, partial curve, poor fit]

**Q.** With `Cc1ccc(C2CC(c3ccco3)n3ncnc3N2)cc1` (stereo not given) as the molecule, how does the “activity change, positive = activation” value read?
**A.** inactive: -0.533%

**Q.** With `CCOc1cc(/C=N/NC(=O)c2ccccc2OCc2ccc(F)cc2)ccc1O` as the molecule, how does the “activity change, positive = activation” value read?
**A.** inactive: -2.26%

**Q.** For `O=C(O)c1ccccc1-c1ccc(/C=C/c2cc(C(F)(F)F)[nH]c(=O)n2)o1`, which “activity change, positive = activation” value is on record?
**A.** inactive: -1.84%

**Q.** With `COC(=O)c1ccc(-c2noc(CN3C[C@H]4CC[C@H]3C4)n2)cc1` as the molecule, how does the Potency read?
**A.** inconclusive: 14.6 µM [activator, partial curve, poor fit]

**Q.** Which Potency does the source give for `c1ccc(Nc2nc(-c3cccnc3)cs2)nc1` here?
**A.** inconclusive: 0.92 µM [activator, partial curve]

**Q.** For `CCOc1ccc(N2C(=O)S/C(=C\c3cc(OC)c(OC)c(OC)c3)C2=O)cc1`, which “activity change, positive = activation” value is on record?
**A.** inactive: -0.0764%

**Q.** For `COc1ccc2oc(C(=O)NCCC(C)C)c(C)c2c1`, which Potency is on record?
**A.** inconclusive: 2.91 µM [activator, partial curve]

**Q.** With `O=C(CSc1nnc(-c2ccccc2F)o1)NC(=O)Cc1ccccc1` as the molecule, how does the “activity change, positive = activation” value read?
**A.** inactive: -1.17%

**Q.** With `CC(C)c1onc(C(=O)Nc2ccc3c(c2)OCO3)c1[N+](=O)[O-]` as the molecule, how does the Potency read?
**A.** inconclusive: 16.4 µM [activator, partial curve, poor fit]

**Q.** Which Potency does the source give for `Cn1c2ccccc2c(=O)c2ccc(-c3ccc4c(c3)OCO4)cc21` here?
**A.** inconclusive: 2.91 µM [activator, full curve]

**Q.** With `NS(=O)(=O)c1ccc(NS(=O)(=O)c2ccc(C3CNC(=O)C3)cc2)cc1` (stereo not given) as the molecule, how does the “activity change, positive = activation” value read?
**A.** inactive: -0.76%

**Q.** Which “activity change, positive = activation” value does the source give for `CCN1C(=NCCCOC(C)C)N[C@@H](CCc2ccccc2)[C@H](C(=O)NCCCOC(C)C)[C@H]1C` here?
**A.** inactive: -2.63%

**Q.** Which “activity change, positive = activation” value does the source give for `CC1CCCCN1C(=O)CNCC1CCCO1` (stereo not given) here?
**A.** inactive: -5.12%

**Q.** With `Cc1ccc(Cc2nc(-c3cccc(C)c3)no2)cc1` as the molecule, how does the Potency read?
**A.** active: 16.4 µM

**Q.** Which Potency does the source give for `COc1ccc(C2Nc3ccccc3C(=O)N2c2ccc(C)cc2)cc1COc1ccccn1` (stereo not given) here?
**A.** inconclusive: 16.4 µM [activator, partial curve]

**Q.** With `CC(C)/C=C1\CCc2c([nH]c3ccccc23)C1=O` as the molecule, how does the “activity change, positive = activation” value read?
**A.** inactive: -14%

**Q.** Which Potency does the source give for `COc1cc(Nc2ccc(C)cc2)c([N+](=O)[O-])nc1[N+](=O)[O-]` here?
**A.** inconclusive: 29.1 µM [activator, partial curve, poor fit]

**Q.** For `O=C(NC(=S)Nc1ccccn1)c1ccc([N+](=O)[O-])cc1`, which Potency is on record?
**A.** inconclusive: 14.6 µM [activator, partial curve, poor fit]

**Q.** Which “activity change, positive = activation” value does the source give for `CCOC(=O)c1c(NC(=O)C2CCCN(S(=O)(=O)c3ccc(C)cc3)C2)sc2c1CCCC2` (stereo not given) here?
**A.** inactive: 3.31%

**Q.** With `Cc1nn(Cc2c(Cl)cccc2Cl)c(C)c1NC(=O)Cn1nc([N+](=O)[O-])c(Cl)c1C` as the molecule, how does the Potency read?
**A.** inconclusive: 20.6 µM [activator, single point]

**Q.** For `CCOC(=O)C1(CCOC)CCN(Cc2ccc(C(=O)OC)cc2)CC1`, which Potency is on record?
**A.** inconclusive: 25.9 µM [activator, partial curve, poor fit]

**Q.** For `O=C(c1ccccc1)c1ccc(N2CCCC2)cc1`, which Potency is on record?
**A.** active: 3.66 µM

**Q.** Which Potency does the source give for `COC(=O)c1ccc(NC(=O)C(C)N2C(=O)c3ccccc3C2=O)cc1` (stereo not given) here?
**A.** inconclusive: 29.1 µM [activator, single point]

**Q.** With `COc1ccc(C(=O)Nc2ccc3c(c2)OCCO3)cc1Br` as the molecule, how does the Potency read?
**A.** inconclusive: 0.73 µM [activator, full curve, poor fit]

**Q.** Which “activity change, positive = activation” value does the source give for `N#C/C(=N\Nc1ccc(Cl)cc1)C(=N)N1CCCCC1` here?
**A.** inactive: 4.91%

**Q.** Which Potency does the source give for `Cc1cccc(C(=O)OCC(=O)N2CCCCCC2)c1` here?
**A.** inconclusive: 20.6 µM [activator, partial curve, poor fit]

**Q.** Which Potency does the source give for `c1ccc(SCc2nc3ccccc3[nH]2)nc1` here?
**A.** inconclusive: 16.4 µM [activator, partial curve, poor fit]

**Q.** For `O=C(Nc1ccc2c(c1)OCCO2)NC12CC3CC(CC(C3)C1)C2`, which Potency is on record?
**A.** inconclusive: 4.11 µM [activator, partial curve]

**Q.** With `O=C(Cn1c2ccccc2c(=O)c2cc([N+](=O)[O-])ccc21)Nc1ccccc1Cl` as the molecule, how does the Potency read?
**A.** inconclusive: 18.4 µM [activator, single point]

**Q.** With `CCOC(=O)Cc1csc(NC(=O)c2sc3nc4ccc(C)cc4cc3c2N)n1` as the molecule, how does the Potency read?
**A.** inconclusive: 29.1 µM [activator, single point]

**Q.** Which Potency does the source give for `CC(=O)c1ccc(NC(=O)C2(c3ccccc3)CCOCC2)cc1` here?
**A.** inconclusive: 18.4 µM [activator, partial curve, poor fit]

**Q.** With `COc1cccc(N2C(=NC(=O)c3ccccc3)SC3CS(=O)(=O)CC32)c1` (stereo not given) as the molecule, how does the “activity change, positive = activation” value read?
**A.** inactive: 4.32%

**Q.** Which Potency does the source give for `Fc1ccc(CNc2nc3ccccc3n3nnnc23)cc1` here?
**A.** inconclusive: 32.6 µM [activator, partial curve, poor fit]

**Q.** For `CCN(CC)c1ccc2cc(C(=O)Nc3ccccn3)c(=O)oc2c1`, which Potency is on record?
**A.** inconclusive: 0.231 µM [activator, full curve]

**Q.** With `CN(C)S(=O)(=O)n1cc(/C=C(\NC(=O)c2ccccc2Cl)C(=O)N2CCOCC2)c2ccccc21` as the molecule, how does the Potency read?
**A.** inconclusive: 29.1 µM [activator, single point]

**Q.** Which “activity change, positive = activation” value does the source give for `COc1cccc(CNn2c(-c3cccc(C)c3)nc3ccccc3c2=O)c1O` here?
**A.** inactive: -6.76%

**Q.** For `CCn1c(=O)cc(OCC(=O)NCc2ccc(C)o2)c2ccccc21`, which Potency is on record?
**A.** inconclusive: 29.1 µM [activator, partial curve, poor fit]

**Q.** With `COc1cccc(C(=O)Nc2ccccc2F)c1` as the molecule, how does the Potency read?
**A.** inconclusive: 18.3 µM [activator, partial curve, poor fit]

**Q.** Which “activity change, positive = activation” value does the source give for `O=C(O)CCC(=O)NNC(=O)c1cccs1` here?
**A.** inactive: -0.0769%

**Q.** Which Potency does the source give for `CC(=O)Nc1ccc(NC(=O)C2CCN(c3ccc(C(F)(F)F)cn3)CC2)cc1` here?
**A.** inconclusive: 32.6 µM [activator, partial curve, poor fit]

**Q.** With `COC(=O)c1[nH]c2cc(OC)ccc2c1NC(=O)CN1CCOCC1` as the molecule, how does the “activity change, positive = activation” value read?
**A.** inactive: -0.461%

**Q.** With `CCOC(=O)c1cnc(-n2cc(C)cn2)nc1Nc1ccccc1OC` as the molecule, how does the “activity change, positive = activation” value read?
**A.** inactive: 0.121%

**Q.** For `O=C(c1cc(Cl)c(=O)n(Cc2ccccc2)c1)N1CCOCC1`, which “activity change, positive = activation” value is on record?
**A.** inactive: 1.15%

**Q.** Which Potency does the source give for `Cc1ccc(N(CC(=O)NCc2ccccc2)C(=O)c2csnn2)cc1` here?
**A.** inconclusive: 29.1 µM [activator, single point]

**Q.** For `C=CCn1c(SCC(=O)Nc2ccc(F)cc2F)nnc1-c1cnccn1`, which Potency is on record?
**A.** inconclusive: 10.3 µM [activator, partial curve, poor fit]

**Q.** With `COC(=O)c1cc2c(s1)-c1ccccc1CC2` as the molecule, how does the Potency read?
**A.** inconclusive: 20.6 µM [activator, single point]

**Q.** With `Nc1ccc(C23CC4CC(CC(O)(C4)C2)C3)cc1` as the molecule, how does the Potency read?
**A.** inconclusive: 29.1 µM [activator, partial curve, poor fit]

**Q.** With `Oc1ccc(-c2csc(Nc3cccnc3)n2)cc1` as the molecule, how does the Potency read?
**A.** inconclusive: 18.4 µM [activator, single point]

**Q.** For `Cn1cnc2c1c(=O)[nH]c(=O)n2Cc1ccccc1`, which Potency is on record?
**A.** inconclusive: 23.1 µM [activator, partial curve]

**Q.** With `CC(=O)c1ccc(NC(=O)Cc2ccsc2)cc1` as the molecule, how does the Potency read?
**A.** inconclusive: 18.3 µM [activator, partial curve]

**Q.** Which Potency does the source give for `COc1ccc(C)c2sc(NC(=O)C3=COCCO3)nc12` here?
**A.** active: 16.4 µM

**Q.** Which Potency does the source give for `COc1ccc(/C=N/Nc2ccccc2C(=O)O)cc1` here?
**A.** active: 1.3 µM

**Q.** Which Potency does the source give for `COc1ccc(Cn2c(-c3ccco3)nc3oc4ccccc4c(=O)c3c2=O)cc1` here?
**A.** inconclusive: 5.62 µM [activator, full curve, poor fit]

**Q.** For `Cc1cc(Nc2ccc(Cl)cc2)nc(N)n1`, which Potency is on record?
**A.** inconclusive: 14.6 µM [activator, partial curve, poor fit]

**Q.** With `Fc1ccccc1-c1nnc2ccc3ccccc3n12` as the molecule, how does the “activity change, positive = activation” value read?
**A.** inactive: -1.73%

**Q.** For `Cc1ccc(Nc2nc3ccccc3s2)c(C)c1`, which Potency is on record?
**A.** active: 2.06 µM

**Q.** With `O=[N+]([O-])c1cccc(-c2cc3ccccc3[nH]2)c1` as the molecule, how does the Potency read?
**A.** inconclusive: 20.6 µM [activator, partial curve, poor fit]

**Q.** For `Cc1ccc(Cn2nc(C)cc2C(=O)Nc2ccccc2Cl)cc1`, which Potency is on record?
**A.** active: 23.1 µM

**Q.** Which Potency does the source give for `CN(C)c1ccc(NC(=O)CN2CCc3ccccc3C2)cc1` here?
**A.** inconclusive: 18.3 µM [activator, single point]

**Q.** For `Cc1ccc(C(=O)NC(=S)N2CCCCCC2)cc1`, which “activity change, positive = activation” value is on record?
**A.** inactive: -0.706%

**Q.** Which Potency does the source give for `NC(=O)c1ccccc1N/C=C/C(=O)c1ccc(Cl)cc1` here?
**A.** inconclusive: 0.794 µM [activator, full curve, poor fit]

**Q.** Which Potency does the source give for `Cc1oc(-c2ccccc2)nc1C(=O)Nc1nccs1` here?
**A.** inconclusive: 18.4 µM [activator, partial curve, poor fit]
